Experimental data published in ChEMBL document CHEMBL4888484, “Replenishing the malaria drug discovery pipeline: Screening and hit evaluation of the MMV Hit Generation Library 1 (HGL1) against asexual blood stage Plasmodium falciparum ,using a nano luciferase reporter read-out” (2022).
The whole screen tested about 150,000 compounds, of which about 540 (0.36%) showed an effect of 50% or more. The list shows a part of the results.

System: Plasmodium falciparum
Assay: Primary screen in NF54 nanoGlo assay, in single point, at 2uM, 72h; a lower Z score goes with more inhibition
Format: functional, Erythrocyte
Conditions: timepoint 72 hour

Row | SMILES | % Inhibition [%] | Z score
1 | Cc1nc(C(C)NC(=O)N2CCCC(c3ccc(F)c(F)c3)C2)cs1 (stereo not drawn) | -3 | 0.49
2 | CO[C@H]1CN(C(=O)NCCN2CCOCC2(C)C)C[C@H]1OC | -6 | 0.91
3 | O=C(Nc1cccc2c1COCC2)N1CCC2(C=Cc3ccccc3O2)CC1 | -3 | 0.47
4 | O=C(NCC1(C(=O)O)CCOCC1)c1cc(C2CC2)nc2ccccc12 | -5 | 0.62
5 | CCNc1ccnc(NCc2nc(-c3cccc(F)c3)c(-c3ccccn3)[nH]2)n1 | 38 | -2.07
6 | CNS(=O)(=O)c1cccc(NCc2cc(COC)cs2)c1 | 3 | -0.42
7 | Cc1onc(-c2ccccn2)c1C(=O)N1CC[C@H](c2ccccn2)C1 | -9 | 1.07
8 | CN(CC1CC1)C(=O)c1c(NC(=O)c2cccnc2)sc2c1CCCC2 | -2 | 0.31
9 | CC(C)[C@H]1CN(C(=O)c2nc(C(F)(F)F)n3c2CCCC3)CCN1 | -15 | 1.9
10 | Cc1nnc(CN(C)C(=O)NCCC2CCCCCC2)o1 | -2 | 0.33
11 | Cc1ccc([C@@H](O)CNCc2cccc3nccn23)cc1 | 3 | -0.6
12 | O=C(O)c1cc(O)cc(-c2cc(NCc3ccccn3)nc3[nH]ccc23)c1 | -8 | 1.55
13 | O=c1c(-c2cc(Br)ccc2NCc2ccccc2)nc2ccccc2n1Cc1ccccc1 | 2 | -0.32
14 | C[C@@H](c1ccc2c(c1)CCC2)S(=O)(=O)Cc1cccc(C(N)=O)n1 | -18 | 3.17
15 | O=C1CC[C@@]2(CCCO2)CCN1Cc1ccccc1OC(F)(F)F | -2 | 0.28
16 | CCNc1ncc(C(=O)N(Cc2ccccn2)C2CCCCC2)cn1 | -12 | 1.5
17 | O=C(NC[C@@H](c1ccco1)S(=O)(=O)c1ccccc1)C1CCCCC1 | -9 | 1.62
18 | CN(CCc1ccccn1)C(=O)c1cc2cc(Br)ccc2o1 | -3 | 0.44
19 | Cc1ccc(OCCCn2cnc3c(N)nc(N)nc32)cc1C | -5 | 0.83
20 | C#CCN1CCC(C(=O)N2CC(S(=O)(=O)N3CCc4ccccc43)C2)CC1 | 5 | -0.52
21 | Cc1ncc2n1CC[C@H](C(=O)N(C)CC1(O)CCC1)C2 | -6 | 1.14
22 | CCN(CC(=O)Nc1c(C)cccc1C)C(=O)C(F)(F)C(F)F | -2 | 0.3
23 | CC1CCN(CC(=O)Nc2ccc3c(c2)OCCCO3)CC1 | 1 | -0.14
24 | CC(=O)Oc1c(S(=O)(=O)c2ccccc2)c(C)nn1-c1ccc(C)cc1C | -9 | 1.34
25 | CNC(=O)c1cccc(COc2c(C)nn(C)c2C)c1 | -7 | 0.99
26 | Cc1nn(-c2ccc(Br)cc2)c(NC(=O)N2CCC[C@@H]2CO)c1C | -12 | 1.33
27 | Cc1nonc1CN(C)c1nccc(-c2c(C)nn(C)c2C)n1 | 2 | -0.24

Row | SMILES | % Inhibition [%] | Z score
28 | CN1C(=O)CO[C@H]2CN(C(=O)c3ccccc3)C[C@H]21 | 6 | -0.68
29 | Cc1ccc(CS(=O)(=O)[C@@H](C)C(=O)Nc2cc(C)on2)cc1 | -8 | 0.68
30 | Cc1cc(C(=O)Nc2ccc(F)cc2)c2c(C)nn(-c3cccc(F)c3)c2n1 | -7 | 0.66
31 | CN1C(=O)c2ccccc2O[C@H]2CN(Cc3ccc4c(c3)OCO4)C[C@H]21 | -1 | 0.22
32 | C[C@H](Oc1ccc(F)cc1)c1nnc(-c2cnc3onc(C4CC4)c3c2)o1 | -5 | 0.74
33 | Cc1c(-c2noc(C(=O)NCCc3ccc(Cl)cc3)n2)oc2ccccc12 | 1 | -0.2
34 | CCCn1nnnc1COC(=O)CCNC(=O)c1ccccc1C | 3 | -0.48
35 | CN1CCCC[C@@H]1Cc1ncnc2sccc12 | 1 | -0.12
36 | O=C(NCc1ccccc1F)c1ccc(CN2CC(=O)N3CCC[C@H]3C2=O)cc1 | -11 | 2.15
37 | CC[C@H](C)N(Cc1csc(COc2cc(C)cc(C)c2)n1)C(=O)c1ccc2c(c1)OCO2 | -9 | 0.96
38 | CCCN(CCC(=O)Nc1cccc(Br)c1)CC(=O)O | -10 | 1.13
39 | CC(C)[C@@H](NS(=O)(=O)C1CC1)c1nc(-c2ccn(C)n2)no1 | -1 | 0.11
40 | Cc1ccncc1CNC(=O)NC[C@H]1CN(C)C[C@@H]1c1ccccc1 | -3 | 0.53
41 | C[C@@H](c1ccncc1)N(C)CCCc1ccc2c(c1)CCO2 | -3 | 0.33
42 | Cc1ncccc1C(=O)Nc1cccc(Oc2cccnn2)c1 | 37 | -5.37
43 | CCC1CC(C(=O)N[C@H]2[C@@H]3CN(Cc4ccc(CC(C)C)cc4)C[C@@H]32)CCO1 (stereo partly drawn) | -4 | 0.64
44 | Cc1ccc(CNC(=O)NC2CCCCC2)n1C | 11 | -1.32
45 | COc1cc(Cl)c(CN(C)CC2(C)COC2)c(OC)c1 | -5 | 1.01
46 | O=C(O)Cc1sc(NCc2ccco2)nc1-c1ccc(Cl)cc1 | 13 | -1.49
47 | Cc1cccc(-c2nc3nc(C)c(CC(=O)N4CCCC4)c(C)n3n2)c1 | -13 | 1.53
48 | O=C(Nc1cncc(F)c1)N1CCC(OC2CCC2)CC1 | -6 | 1.19
49 | CCCNC(=O)C[C@@H]1C[C@H]2O[C@H](CNCc3cccnc3OC)[C@@H](O)[C@H]2O1 | 4 | -0.58
50 | O=C(NC1CCCCCCC1)C1CCC1 | -10 | 1.32
51 | COc1cc(C)ccc1Oc1nc(C)nc(N(C)Cc2ccccc2)c1N | -1 | 0.22
52 | COc1cc(OC)cc(C(=O)Nc2c(C(=O)N3CCC(C)CC3)oc3ccccc23)c1 | -10 | 1.47
53 | Cc1ccn2nc(C(=O)N3CCCNCC3)cc2c1 | -2 | 0.3
54 | CC(C)c1cccc(-n2cc(O)c(C(=O)N3CCN(c4ccccc4)CC3)n2)c1 | 6 | -1.29
